Reference: the supplement of paper PMC4723716
± gives the uncertainty stated by the source. The full ranking holds about 9,900 compounds; the median of “viability index relative to DMSO control” is about 1, and the lowest 2% start at about 0.85. This is one part of the list.

The molecules below were run on Plasmodium falciparum NF54 stage V gametocytes (assay: viability index relative to DMSO control (fraction); higher = less gametocyte killing). Settings: 2.5 µM, library set: Broad Institute DOS, incubation time: 72 h.
Procedure, shortened: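 Compound at 2.5 µM was incubated for 72 hr at 37°C under low oxygen with P. falciparum NF54 stage V gametocytes (0.75% gametocytemia, 1.25% hematocrit, 10 µl, serum-free screening medium) in 1,536-well plates. Staining used 3 µl of 2.5 µM MitoTracker Red CMXRos plus 0.13% saponin for one to two hours, and red particles of 20–70 µm2 were counted in one imaged field per well. Each viability index is that count relative to the plate mean of solvent-only wells.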

Row | Compound | viability index
1 | COc1ccc(C[C@H]2CCn3nncc3COC[C@@H](c3ccccc3)NC2=O)cc1 | 1.01 ± 0.061
2 | O=C(C[C@H]1C[C@@H]2c3cc(NC(=O)c4ccc5c(c4)OCO5)ccc3O[C@@H]2[C@@H](CO)O1)NCc1ccc(Oc2ccccc2)cc1 | 0.956 ± 0.054
3 | CN1c2ccc(Br)cc2[C@H]2[C@H](CCN2C(=O)c2ccc(F)cc2)[C@H]1CO | 1.03 ± 0.1
4 | C[C@@H]1CN([C@@H](C)CO)C(=O)CCCn2nncc2CO[C@H]1CN(C)Cc1cccc2c1OCCCO2 | 1.07 ± 0.021
5 | COc1ccc2c3c([C@H](CO)N(C)C[C@]33CCN(CC3)C(=O)c3ccccc3F)n(C)c2c1 | 0.929 ± 0.062
6 | COCC(=O)Nc1ccc2c(c1)C(=O)N(C)C[C@@H](OC)[C@@H](C)CN(CCc1ccccc1)[C@@H](C)CO2 | 1.04 ± 0.039
7 | C[C@@H]1CN([C@H](C)CO)C(=O)c2cc(NS(=O)(=O)c3ccc(F)cc3)ccc2O[C@@H](C)CCCCO[C@H]1CN(C)C(=O)Nc1ccc2c(c1)OCO2 | 1.04 ± 0.053
8 | N#C[C@@H]1[C@@H](c2ccc(C#CC3(O)CCCC3)cc2)[C@@H](CO)N1C(=O)C1CCCCC1 | 1.11 ± 0.019
9 | CO[C@H](CN(C)Cc1cc(F)ccc1F)[C@H](C)CN([C@H](C)CO)S(=O)(=O)c1ccc(C)cc1 | 0.904 ± 0.036
10 | C[C@H]1CN([C@@H](C)CO)C(=O)CCCn2cc(nn2)CO[C@@H]1CN(C)S(=O)(=O)c1ccc(-n2cccn2)cc1 | 1.07 ± 0.028
11 | CN1C(=O)c2cc(NS(=O)(=O)c3cccc(F)c3)ccc2OC[C@H]2O[C@H](CC(=O)N3CCc4ccccc4C3)CC[C@H]21 | 1.06 ± 0.11
12 | C[C@@H]1CN([C@H](C)CO)C(=O)c2cc(NC(=O)CCC(F)(F)F)ccc2O[C@@H](C)CCCCO[C@H]1CN(C)C(=O)Nc1cccc2ccccc12 | 1.08 ± 0.036
13 | C[C@H](CO)N1C[C@H](C)[C@@H](CN(C)Cc2ccc3c(c2)OCO3)Oc2ccc(NC(=O)C3CCCCC3)cc2C1=O | 0.9297 ± 0.0034
14 | O=C(C[C@H]1CC[C@@H]2[C@H](COC[C@H](O)CN2C(=O)c2ccncc2)O1)NCc1cc(F)cc(F)c1 | 1.08 ± 0.074
15 | O=C(NC[C@H]1[C@H](c2ccccc2)[C@@H](CO)N1C(=O)Cc1ccncc1)C1CCC1 | 0.8695 ± 0.0059
16 | COc1ccc(S(=O)(=O)N(C)C[C@@H]2OCCCC[C@H](C)Oc3ccc(NC(=O)Cc4ccccc4)cc3C(=O)N([C@H](C)CO)C[C@@H]2C)cc1 | 1.06 ± 0.15
17 | O=C(C[C@@H]1C[C@H]2c3cc(NS(=O)(=O)c4ccc(F)cc4)ccc3O[C@H]2[C@@H](CO)O1)N1CCc2ccccc2C1 | 1.13 ± 0.057
18 | COc1ccc(S(=O)(=O)N(C)C[C@@H]2OCCCC[C@H](C)Oc3ccc(NC(=O)Cc4ccccc4)cc3C(=O)N([C@H](C)CO)C[C@H]2C)cc1 | 1.12 ± 0.1
19 | COc1ccccc1C#Cc1ccc([C@@H]2[C@H](CO)N3CCCCN(C(=O)C4CCC4)C[C@@H]23)cc1 | 0.967 ± 0.025
20 | CN(C)C(=O)c1ccc(-c2ccc([C@@H]3[C@@H]4CN(S(=O)(=O)c5ccccc5F)C[C@H]3N4)cc2)cc1 | 1.122 ± 0.0085
21 | COc1ccccc1-c1ccc([C@H]2[C@@H](CO)N[C@@H]2CNC(=O)C2CC2)cc1 | 0.999 ± 0.091
22 | O=C(C[C@@H]1CC[C@H]2[C@@H](COC[C@H](O)CN2C(=O)Nc2cc(Cl)cc(Cl)c2)O1)N1CCOCC1 | 1.089 ± 0.007
23 | O=C(C[C@@H]1CC[C@H](NC(=O)Nc2ccc(C(F)(F)F)cc2)[C@@H](CO)O1)NCc1cccc(F)c1 | 0.989 ± 0.041

Row | Compound | viability index
24 | Cc1ccccc1-c1ccc([C@H]2[C@@H]3CN(C(=O)C4CCOCC4)C[C@H]2N3)cc1 | 1.07 ± 0.07
25 | COc1ccc2c3c([nH]c2c1)[C@@H](CO)NC[C@]31CCN(Cc2ccc(F)cc2)CC1 | 0.963 ± 0.05
26 | CCNC(=O)C[C@H]1CC[C@@H]2[C@H](COC[C@H](O)CN2C(=O)c2ccccn2)O1 | 1.1 ± 0.12
27 | CCCC(=O)Nc1ccc2c(c1)C(=O)N(C)[C@H]1CC[C@H](CC(=O)NCc3cccc(F)c3)O[C@H]1CO2 | 1.07 ± 0.048
28 | O=C(Cc1ccccn1)N1CC2(C1)[C@@H](c1ccccc1)[C@H](CO)N2C(=O)c1ccncc1 | 1.12 ± 0.045
29 | CO[C@@H](CN(C)Cc1cc(F)ccc1F)[C@@H](C)CN(C(=O)Nc1ccc(C(F)(F)F)cc1)[C@H](C)CO | 0.99 ± 0.028
30 | COc1ccc([C@H]2C/C=C/C[C@@H](C)Oc3ccccc3C(=O)N(C)[C@H](C(C)C)C(=O)N2)c(OC)c1.COc1ccc([C@H]2C/C=C\C[C@@H](C)Oc3ccccc3C(=O)N(C)[C@H](C(C)C)C(=O)N2)c(OC)c1 | 0.964 ± 0.056
31 | COc1ccc(NC(=O)N(C)C[C@@H]2OCc3ccccc3-c3ccccc3C(=O)N([C@@H](C)CO)C[C@@H]2C)c(OC)c1 | 0.9868 ± 0.0088
32 | C[C@H]1CN([C@@H](C)CO)C(=O)c2ccccc2-c2ccccc2CO[C@H]1CN(C)C(=O)[C@H]1CCCN1C | 0.981 ± 0.14
33 | Cc1noc(C)c1NC(=O)N(C)C[C@@H]1OCc2cn(nn2)CCCC(=O)N([C@H](C)CO)C[C@@H]1C | 1.08 ± 0.1
34 | O=C(Cc1ccccn1)N1CC(=O)N2[C@H](CO)[C@H](c3ccc(C#CCC4CCCC4)cc3)[C@@H]2C1 | 1.01 ± 0.092
35 | CCCN1C[C@H](C)[C@H](OC)CN(C)C(=O)c2cc(NS(=O)(=O)c3ccccc3)ccc2OC[C@H]1C | 0.934 ± 0.08
36 | O=C(C1CCOCC1)N1CC[C@@H]2[C@@H](CO)Nc3ccc(-c4cccc(F)c4)cc3[C@@H]21 | 1.05 ± 0.059
37 | Cc1noc(C)c1S(=O)(=O)N(C)C[C@H]1OCc2ccccc2-c2ccccc2C(=O)N([C@H](C)CO)C[C@H]1C | 1.017 ± 0.0036
38 | O=C(C1CCC1)N1CC(=O)N2[C@H](C1)[C@H](c1ccc(Br)cc1)[C@@H]2CO | 1.02 ± 0.0049
39 | C/C=C/c1ccc([C@@H]2[C@H](CO)N(C(C)=O)[C@H]2CN(CC)C(=O)CN(C)C)cc1 | 1.08 ± 0.038
40 | O=C(C[C@H]1C=C[C@H](NC(=O)Nc2cccc(F)c2)[C@@H](CO)O1)NCC1CCCCC1 | 0.95 ± 0.055
41 | COc1ccc2c3c([C@H](CO)N(Cc4nccs4)C[C@]33CCN(CC4CCCC4)CC3)n(C)c2c1 | 0.841 ± 0.028
42 | CN(C)C(=O)c1cccc(-c2ccc([C@H]3[C@H]4CNC[C@@H]3N4S(=O)(=O)Cc3ccccc3)cc2)c1 | 1.04 ± 0.021
43 | COc1ccc2c3c([nH]c2c1)[C@H](CO)N(Cc1ccncc1)C[C@]31CN(Cc2ccc(cc2)-c2ccccn2)C1 | 1.008 ± 0.01
44 | O=C(NC[C@H]1[C@H](c2ccccc2)[C@H](CO)N1C(=O)Cc1ccncc1)C1CCC1 | 1.05 ± 0.013
45 | C[C@@H]1CCCCO[C@@H](CN(C)CC2CC2)[C@H](C)CN([C@@H](C)CO)C(=O)c2cc(NC(=O)c3ccccc3)ccc2O1 | 1.14 ± 0.018
46 | O=C(Nc1ccc(C(F)(F)F)cc1)N[C@H]1C=C[C@H](CC(=O)N2CCCCC2)O[C@@H]1CO | 1.15 ± 0.075

Row | Compound | viability index
47 | C[C@H]1CCCCO[C@@H](CN(C)Cc2ccncc2)[C@@H](C)CN([C@@H](C)CO)C(=O)c2cc(NC(=O)Cc3ccccc3)ccc2O1 | 1.03 ± 0.088
48 | C[C@H](CO)N1C[C@H](C)[C@H](CN(C)S(=O)(=O)c2cccs2)Oc2ccc(NC(=O)Nc3cccc4ccccc34)cc2C1=O | 0.9579 ± 0.0044
49 | O=C(C[C@H]1C[C@@H]2c3cc(NS(=O)(=O)c4ccc(F)cc4)ccc3O[C@@H]2[C@H](CO)O1)N1CCc2ccccc2C1 | 0.95 ± 0.08
50 | CCC(=O)N1C[C@@H](O)COC[C@H]2O[C@H](CC(=O)NC)CC[C@@H]21 | 1.09 ± 0.025
51 | O=C(CN1CCOCC1)N1CCCCN2[C@H](CO)[C@@H](c3ccc(Br)cc3)[C@@H]2C1 | 1 ± 0.1
52 | C[C@@H]1CCCCO[C@@H](CN(C)C(=O)CCCN(C)C)[C@@H](C)CN([C@H](C)CO)C(=O)c2cc(NS(=O)(=O)c3ccc(Cl)cc3)ccc2O1 | 1.17 ± 0.14
53 | Cc1cccc(S(=O)(=O)N2C[C@H]3[C@@H](c4ccccc42)[C@H](CO)N3C(=O)c2ccccc2)c1 | 1.09 ± 0.013
54 | O=S(=O)(c1ccccc1)N1CC2(C1)[C@H](c1ccccc1)[C@@H](CO)N2CC1CCOCC1 | 1.02 ± 0.079
55 | CCCC#Cc1ccc([C@H]2[C@H]3CN(C(=O)c4cccnc4)CC(=O)N3[C@H]2CO)cc1 | 0.964 ± 0.051
56 | C[C@H]1CN([C@@H](C)CO)C(=O)CCCn2cc(nn2)CO[C@@H]1CN(C)C(=O)c1ccc(N2CCN(C)CC2)cc1 | 0.9784 ± 0.0069
57 | CN(C)CC(=O)N1[C@H](C#N)[C@@H](c2ccc(C#CC3CCCCC3)cc2)[C@@H]1CO | 1.09 ± 0.021
58 | COc1ccc(-c2ccc3n(c2=O)C[C@@H]2[C@@H](CO)[C@H](C(=O)NCC4CC4)N(C(=O)NC(C)C)[C@H]32)cc1 | 1.06 ± 0.11
59 | CCCC#Cc1ccc2c(c1)O[C@H](CN(C)Cc1ccccn1)[C@H](C)CN([C@H](C)CO)S2(=O)=O | 1.028 ± 0.0052
60 | C/C=C/c1ccc([C@@H]2[C@H](CO)N(C(C)=O)[C@H]2CN(C(C)=O)C2CCCC2)cc1 | 1.04 ± 0.074
61 | C[C@H](CO)N1C[C@H](C)[C@H](CN(C)S(=O)(=O)c2ccc([N+](=O)[O-])cc2)OCc2ccccc2-c2c(n(C)c3ccccc23)C1=O | 0.969 ± 0.015
62 | CCCNC(=O)N1[C@H](CO)[C@H]2c3ccccc3N(C(=O)Nc3cccc(Cl)c3)C[C@H]21 | 1.02 ± 0.045
63 | O=C(NCC[C@@H]1CC[C@@H](NS(=O)(=O)c2ccc(F)cc2)[C@@H](CO)O1)c1ccc2c(c1)OCO2 | 0.963 ± 0.095
64 | C/C=C/c1ccc([C@@H]2[C@@H](CO)N(CC3CCCC3)C23CN(S(=O)(=O)CC)C3)cc1 | 1.037 ± 0.0019
65 | CCc1nc(N2[C@H](C#N)[C@H](c3ccccc3-c3ccccc3C)[C@H]2CO)sc1C | 1.16 ± 0.18
66 | C[C@@H]1CN([C@@H](C)CO)C(=O)c2cc(NC(=O)Nc3ccc(C(F)(F)F)cc3)ccc2O[C@@H](C)CCCCO[C@H]1CN(C)S(=O)(=O)c1ccc(Cl)cc1 | 1.09 ± 0.26
67 | CN(C[C@H]1N[C@@H](CO)[C@@H]1c1ccc(C2=CCCC2)cc1)C(=O)c1cccc(F)c1 | 0.946 ± 0.04
68 | CCNC(=O)c1cc2c(c(-c3cccc(-c4cccnc4)c3)n1)[C@@H](CCO)N(S(C)(=O)=O)C2 | 1.04 ± 0.022
